{"source": "patent US20100317578A1", "about": "“METHOD OF PROTECTING AGAINST STROKE THROUGH THE USE OF A DELTA OPIOID PEPTIDE” (priority 2009, published 2010)", "test_system": "neurogenesis"}
{"smiles": "CC(C)C[C@@H](NC(=O)[C@H](Cc1ccccc1)NC(=O)CNC(=O)[C@@H](C)NC(=O)[C@@H](N)Cc1ccc(O)cc1)C(=O)O", "note": "[DADLE, [D-Ala^2,D-Leu^5]enkephalin]", "values": [{"measurement": "induction of neurogenesis", "value": "robustly induces neurogenesis"}]}
